Out of some 310,000 compounds screened, about 2,200 (0.71%) showed an effect of 50% or more. Effects have a minus sign here. Some of the results follow.
target: human ether-à-go-go-related gene (hERG) potassium channel (human, UniProt Q12809); test: primary screen, population patch clamp on CHO cells stably expressing hERG
Sequence (Q12809 whole entry, looked up): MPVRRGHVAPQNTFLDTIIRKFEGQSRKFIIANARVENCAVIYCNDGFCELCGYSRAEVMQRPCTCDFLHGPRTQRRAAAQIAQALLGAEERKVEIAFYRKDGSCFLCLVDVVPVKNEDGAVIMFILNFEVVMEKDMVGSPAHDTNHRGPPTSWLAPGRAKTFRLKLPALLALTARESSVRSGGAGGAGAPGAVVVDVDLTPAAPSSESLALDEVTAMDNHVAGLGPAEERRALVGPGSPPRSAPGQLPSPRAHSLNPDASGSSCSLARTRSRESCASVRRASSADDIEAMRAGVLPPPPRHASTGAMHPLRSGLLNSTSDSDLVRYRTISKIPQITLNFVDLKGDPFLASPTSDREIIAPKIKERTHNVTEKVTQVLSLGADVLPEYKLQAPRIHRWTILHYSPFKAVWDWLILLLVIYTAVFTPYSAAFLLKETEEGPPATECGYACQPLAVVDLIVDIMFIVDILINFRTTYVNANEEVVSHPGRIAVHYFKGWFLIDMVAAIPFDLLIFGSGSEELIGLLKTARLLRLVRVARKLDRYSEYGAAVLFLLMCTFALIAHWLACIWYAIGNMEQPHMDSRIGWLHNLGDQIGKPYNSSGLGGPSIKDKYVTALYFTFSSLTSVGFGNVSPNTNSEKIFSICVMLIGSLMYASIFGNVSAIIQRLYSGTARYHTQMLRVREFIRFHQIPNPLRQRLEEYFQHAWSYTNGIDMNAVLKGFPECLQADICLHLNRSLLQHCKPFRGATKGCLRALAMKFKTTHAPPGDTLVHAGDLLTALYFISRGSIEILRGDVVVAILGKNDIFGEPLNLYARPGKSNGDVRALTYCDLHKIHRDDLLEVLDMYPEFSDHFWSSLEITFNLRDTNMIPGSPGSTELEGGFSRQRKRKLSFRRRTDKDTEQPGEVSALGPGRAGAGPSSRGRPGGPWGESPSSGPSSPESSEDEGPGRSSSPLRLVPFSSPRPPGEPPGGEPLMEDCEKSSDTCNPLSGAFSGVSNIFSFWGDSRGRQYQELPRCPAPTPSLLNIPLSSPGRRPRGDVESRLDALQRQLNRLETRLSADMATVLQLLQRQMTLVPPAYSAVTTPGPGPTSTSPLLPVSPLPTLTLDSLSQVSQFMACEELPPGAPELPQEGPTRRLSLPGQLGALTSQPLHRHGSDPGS

Row | SMILES | hERG current change (%, negative = inhibition) at 1uM
1 | Cc1nn(CCc2n[nH]c(=S)n2C)c(C)c1Br | 1.19%
2 | O=C(c1cccc(N2C(=O)C3C4C=CC(C4)C3C2=O)c1)N1CCCc2ccccc21 (centres unmarked) | -4.2%
3 | CCC1(CC)Cc2ccccc2C(N)=C1C#N | -0.675%
4 | COc1ccc(Cl)cc1NC(=O)c1nnn(CC(=O)Nc2ccc3c(c2)OCO3)c1N | 18.7%
5 | Cc1ccc(NC(=O)C2CC(=O)N(c3ccc4c(c3)OCCO4)C2)cc1S(=O)(=O)N(C)C (centres unmarked) | -1.44%
6 | N#Cc1nc(-c2cccc3ccccc23)oc1NCC1CCCO1 (centres unmarked) | 11.4%
7 | COc1ccc(NC(=O)CN(C)C2CCCCC2)cc1Cl | -17.1%
8 | Cc1cccc2cc(CN(CC3CCCO3)S(=O)(=O)c3ccccc3)c(=O)[nH]c12 (centres unmarked) | 13.8%
9 | O=C(CCCSc1nc2ccccc2[nH]1)NCc1ccco1 | 2.21%
10 | Cc1nn(-c2ccccc2)c(=O)c2noc(C)c12 | 0.649%
11 | CCN(c1ccccc1)S(=O)(=O)c1ccc2c(c1)CC(C)N2C(=O)C1CC1 (centres unmarked) | 17%
12 | COc1ccc(OC)c(NC(=O)CSc2nc(-c3ccccc3)cc(=O)[nH]2)c1 | 19.4%
13 | CCCC(NC(=O)CCc1c(C)c2cc3c(-c4ccccc4)coc3cc2oc1=O)C(=O)O (centres unmarked) | 11.2%
14 | O=S(=O)(/N=C(/Nc1ccc(Cl)c(S(=O)(=O)Nc2ccccc2Cl)c1)c1ccc(F)cc1)c1ccccc1 | 15.6%
15 | O=C(CCS(=O)(=O)c1ccc(Cl)cc1)NCCc1c[nH]c2ccccc12 | 4.07%
16 | CCCC(=O)NC(=S)Nc1cccc(-c2nc3ncccc3o2)c1 | 15.5%
17 | S=C(NCC1CCCO1)N1CCN(c2nc(-c3ccc(Cl)cc3)cs2)CC1 (centres unmarked) | 15.5%
18 | CC1=NC(C#N)=C(C#N)NC(C)(C)C1 | 1.13%
19 | CC(C)CN(C(=O)CSc1nnc(-c2cccs2)n1N)c1c(N)n(Cc2ccccc2)c(=O)[nH]c1=O | -8.21%

Row | SMILES | hERG current change (%, negative = inhibition) at 1uM
20 | Cc1cc2oc(=O)cc(CN(C)Cc3ccccc3)c2cc1C(C)C | 13.9%
21 | O=S(=O)(c1ccc(F)cc1)N1CCN(c2nc(-c3cccnc3)nc3ccccc23)CC1 | -32%
22 | Cc1ccnc(NC(=O)C23CC4CC(CC(C4)C2)C3)c1 | 7.39%
23 | Cc1ccc(N2C(=O)C3CCCN3C2=S)cc1C (centres unmarked) | 16%
24 | Cc1nc2ccccc2c2oc(C(=O)N3CCc4ccccc4C3)cc12 | 6.58%
25 | CCSc1ncc(C#N)c(N)n1 | 7.85%
26 | O=C(O)c1ccccc1C(=O)Nc1ccc(Oc2ccc3ccccc3c2)cc1 | 10.8%
27 | Cc1nn(CCC(=O)O)c(C)c1C | 10.9%
28 | Cc1ccc(CNC(=O)/C=C/c2ccc(S(=O)(=O)N3CCOCC3)cc2)cc1 | 4.97%
29 | O=C1C=C(/C=C/C2C=CC=CC2)C[C@@H](c2ccc(Cl)cc2)C1 (some centres unmarked) | 13.5%
30 | CC(C)Nc1nnc(SCC(=O)/C=C2\N(C)c3ccccc3C2(C)C)s1 | 7.82%
31 | COC(=O)c1cccc(NC(=O)CCc2c(C)noc2C)c1 | 10%
32 | Cc1ccc(C2CC2C(=O)NNC(=S)Nc2ccc(Cl)cc2)cc1 (centres unmarked) | -0.0935%
33 | CCOc1ccccc1/C=C/C(=O)c1ccc(Cl)cc1 | 2.61%
34 | C=CCN1CC(c2nc3ccccc3n2CCOc2ccccc2)CC1=O (centres unmarked) | 5.08%
35 | OC1(C#CCN2CCCC2)c2ccccc2-c2ccccc21 | 4.56%
36 | CCN(CC)S(=O)(=O)c1ccc(C(=O)NNC(=O)c2csc(N3CCOCC3)n2)cc1 | 1.65%
37 | C[C@@H](C(=O)N1CCN(Cc2ccc3c(c2)OCO3)CC1)n1nnc2ccccc2c1=O | 16.2%
38 | COc1ccc(C(NC(=O)/C=C/c2ccco2)c2ccc(OC)cc2)cc1 | 1.34%

Row | SMILES | hERG current change (%, negative = inhibition) at 1uM
39 | Cc1ccc(CC2CC(=O)N(CCc3ccccc3)C2=O)cc1 (centres unmarked) | 12.1%
40 | COc1ccc(/C=N/NC(=O)c2ccccc2)cc1CN1CCN(c2ccc(F)cc2)CC1 | -62.1%
41 | O=C(COc1ccc(OCc2ccccc2)cc1)NC1CCOC1=O (centres unmarked) | 7.32%
42 | COC(=O)c1cccc(-c2ccc(/C=N/N3C(=O)C4C5C=CC(C6CC56)C4C3=O)o2)c1 (centres unmarked) | 4.74%
43 | CC(=O)CC(C)(C)S(=O)(=O)c1ccc(NC(C)=O)cc1 | 14.7%
44 | Cc1ccc(N2CC(C(=O)Nc3ccc4c(c3)OCCO4)CC2=O)cc1C (centres unmarked) | 14.3%
45 | O=C1OC(c2ccc(Cl)cc2)/C(=C(/O)c2ccccc2)C1=O (centres unmarked) | 2.03%
46 | O=C(O)c1cccc(NS(=O)(=O)c2cc(S(=O)(=O)c3ccc(Cl)cc3)ccc2Cl)c1 | 1.37%
47 | O=C(Cn1cnc2ccccc2c1=O)NNC(=O)c1ccccc1 | 16%
48 | CCc1cc(C(c2ccncc2)N2CCN(C)CC2)c(NC(=O)c2ccccc2)s1 (centres unmarked) | -29.2%
49 | CCOCCCNC(=O)CN(Cc1ccc(Cl)cc1)S(C)(=O)=O | 8.42%
50 | COc1cc(-c2nc3n(n2)C(c2ccc(F)cc2)C2=C(CCCC2=O)N3)cc(OC)c1OC (centres unmarked) | 3.59%
51 | Cc1cccc(NC(=O)CN(C)S(=O)(=O)c2cccc3cccnc23)c1 | -3.6%
52 | COc1ccc(CN2CC(C(=O)N3CC(C)CC(C)C3)CC2=O)cc1 (centres unmarked) | 19.8%
53 | S=c1nc(C23CC4CC(CC(C4)C2)C3)nc2sccn12 | 5.69%
54 | CCOCCCn1c(SCC(=O)Nc2ccccc2OC)nc2ccccc2c1=O | -23.9%
55 | Cc1c(C(=O)c2ccc(Cl)cc2Cl)cnc2cc3c(cc12)OCO3 | 14.6%
56 | Cn1c(Cn2c(=O)sc3ccccc32)nnc1SCc1cccc(F)c1 | 8.87%

— publication PMC4336329 (PLoS ONE, 2015)
